Each molecule was assayed against T1, recombinant, human protein tyrosine phosphatase (PTP) 1B (Homo sapiens, UniProt P18031). Details: not given.
T1 sequence (P18031 1-435): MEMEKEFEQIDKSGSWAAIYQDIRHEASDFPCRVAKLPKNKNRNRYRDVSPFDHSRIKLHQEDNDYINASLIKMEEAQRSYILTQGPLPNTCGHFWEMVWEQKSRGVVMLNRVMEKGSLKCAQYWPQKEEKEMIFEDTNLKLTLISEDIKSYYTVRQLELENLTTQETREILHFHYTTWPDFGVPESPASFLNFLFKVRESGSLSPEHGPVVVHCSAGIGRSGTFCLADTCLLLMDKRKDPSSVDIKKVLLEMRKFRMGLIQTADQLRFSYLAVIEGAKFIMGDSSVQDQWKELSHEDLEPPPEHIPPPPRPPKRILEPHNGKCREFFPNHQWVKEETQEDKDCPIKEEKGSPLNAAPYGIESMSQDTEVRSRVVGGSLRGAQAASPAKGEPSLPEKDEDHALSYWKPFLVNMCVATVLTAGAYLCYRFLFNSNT
Molecule Cc1sc2c(Br)c3ccccc3c(-c3ccc(OS(=O)(=O)c4ccc(C(=O)O)c(O)c4)c(C(C)C)c3)c2c1C [Example 1, 4-[4-(9-Bromo-2,3-dimethyl-naphtho[2,3-b]thiophen-4-yl)-2-isopropyl-phenoxysulfonyl]-2-hydroxy-benzoic acid] has an IC50 of 48 nM.
For CCCC(=O)Oc1cc(S(=O)(=O)Oc2c(C)cc(-c3c4ccccc4c(Br)c4sc(C)c(C)c34)cc2C)ccc1C(=O)O [Example 7, 2-Butyryloxy-4-[4-(9-bromo-2,3-dimethyl-naphtho[2,3-b]thiophen-4-yl)-2,6-dimethyl-phenoxysulfonyl]-benzoic acid], the IC50 was 49 nM.
CCc1cc(-c2c3ccccc3cc3sc(C)c(C)c23)cc(CC)c1OS(=O)(=O)c1scc(C(=O)O)c1OC [Example 18, 5-[4-(2,3-dimethyl-naphtho[2,3-b]thiophen-4-yl)-2,6-diethyl-phenoxysulfonyl]-4-methoxy-thiophene-3-carboxylic acid] gave an IC50 of 121 nM.
CCc1cc(-c2c3ccccc3cc3oc(C)c(C)c23)cc(Br)c1OS(=O)(=O)c1ccc(C(=O)O)c(O)c1 [Example 14, 4-[2-Bromo-4-(2,3-dimethyl-naphtho[2,3-b]furan-4-yl)-6-ethyl-phenoxysulfonyl]-2-hydroxy-benzoic acid] was tested, and the IC50 was 83 nM.
Cc1cc(-c2c3ccccc3c(Br)c3sc(C)c(C)c23)cc(C)c1OS(=O)(=O)c1ccc(C(=O)O)c(OC(=O)c2ccccc2)c1 [Example 8, 2-Benzoyloxy-4-[4-(9-bromo-2,3-dimethyl-naphtho[2,3-b]thiophen-4-yl)-2,6-dimethyl-phenoxysulfonyl]-benzoic acid] gave an IC50 of 21 nM.
CCC(=O)Oc1cc(S(=O)(=O)Oc2c(C)cc(-c3c4ccccc4c(Br)c4sc(C)c(C)c34)cc2C)ccc1C(=O)O [Example 9, 2-Propionyloxy-4-[4-(9-bromo-2,3-dimethyl-naphtho[2,3-b]thiophen-4-yl)-2,6-dimethyl-phenoxysulfonyl]-benzoic acid] gave an IC50 of 42 nM.
In the case of Cc1cc(-c2c3ccccc3cc3sc(C)c(C)c23)cc(C)c1OS(=O)(=O)c1ccc(C(=O)O)c(OC(=O)c2ccc(Cl)cc2)c1 [Example 24, 2-(4-Chloro-benzoyl)oxy-4-[4-(2,3-dimethyl-naphtho[2,3-b]thiophen-4-yl)-2,6-dimethyl-phenoxysulfonyl]-benzoic acid], the IC50 is reported as 83 nM.
In the case of Cc1sc2cc3ccccc3c(-c3ccc(OS(=O)(=O)c4ccc(C(=O)O)c(O)c4)c(C4CCCC4)c3)c2c1C [Example 12, 4-[2-Cyclopentyl-4-(2,3-dimethyl-naphtho[2,3-b]thiophen-4-yl)-phenoxysulfonyl]-2-hydroxy-benzoic acid], the IC50 is reported as 80 nM.
Molecule Cc1cc(-c2c3ccccc3c(Br)c3sc(C)c(C)c23)cc(C)c1OS(=O)(=O)c1ccc(C(=O)O)c(OC(=O)c2cccnc2)c1 [Example 26, Nicotinic acid 2-carboxy-5-[4-(9-bromo-2,3-dimethyl-naphtho[2,3-b]thiophen-4-yl)-2,6-dimethyl-phenoxysulfonyl]-phenyl ester] has an IC50 of 72 nM.
CC(=O)Oc1cc(S(=O)(=O)Oc2c(C)cc(-c3c4ccccc4c(Br)c4sc(C)c(C)c34)cc2C)ccc1C(=O)O [Example 5, 2-Acetoxy-4-[4-(9-bromo-2,3-dimethyl-naphtho[2,3-b]thiophen-4-yl)-2,6-dimethyl-phenoxysulfonyl]-benzoic acid] showed an IC50 of 81 nM.
In the case of CC(=O)Oc1cc(S(=O)(=O)Oc2ccc(-c3c4ccccc4c(Br)c4sc(C)c(C)c34)cc2C2CCCC2)ccc1C(=O)O [Example 6, 2-Acetoxy-4-[4-(9-bromo-2,3-dimethyl-naphtho[2,3-b]thiophen-4-yl)-2-cyclopentyl-phenoxysulfonyl]-benzoic acid], the IC50 is reported as 56 nM.
Cc1sc2c(Br)c3ccccc3c(-c3cc(C(C)C)c(OS(=O)(=O)c4ccc(C(=O)O)c(O)c4)c(C(C)C)c3)c2c1C [Example 4, 4-[4-(9-Bromo-2,3-dimethyl-naphtho[2,3-b]thiophen-4-yl)-2,6-diisopropyl-phenoxysulfonyl]-2-hydroxy-benzoic acid] was tested, and the IC50 was 33 nM.
Cc1sc2c(Br)c3ccccc3c(-c3ccc(OS(=O)(=O)c4ccc(C(=O)O)c(O)c4)c(C4CCCC4)c3)c2c1C [Example 3, 4-[4-(9-Bromo-2,3-dimethyl-naphtho[2,3-b]thiophen-4-yl)-2-cyclopentyl-phenoxysulfonyl]-2-hydroxy-benzoic acid] showed an IC50 of 28 nM.
Work on COc1c(C(=O)O)csc1S(=O)(=O)Oc1ccc(-c2c3ccccc3c(Br)c3sc(C)c(C)c23)cc1C1CCCC1 [Example 10, 5-[4-(9-Bromo-2,3-dimethyl-naphtho[2,3-b]thiophen-4-yl)-2-cyclopentyl-phenoxysulfonyl]-4-methoxy-thiophene-3-carboxylic acid] yielded an IC50 of 39 nM.
With Cc1cc(-c2c3ccccc3c(Br)c3sc(C)c(C)c23)cc(C)c1OS(=O)(=O)c1ccc(C(=O)O)c(O)c1 [Example 2, 4-[4-(9-Bromo-2,3-dimethyl-naphtho[2,3-b]thiophen-4-yl)-2,6-dimethyl-phenoxysulfonyl]-2-hydroxy-benzoic acid] the IC50 was 106 nM.
Molecule Cc1cc(-c2c3ccccc3c(Br)c3sc(C)c(C)c23)cc(C)c1OS(=O)(=O)c1ccc(C(=O)O)c(OC(=O)c2ccncc2)c1 [Example 30, Isonicotinic acid 5-[4-(9-bromo-2,3-dimethyl-naphtho[2,3-b]thiophen-4-yl)-2,6-dimethyl-phenoxysulfonyl]-2-carboxy-phenyl ester] has an IC50 of 37 nM.

Same assay, conditions: read-out: % inhibition @ 1 (μM)
In the case of CSc1nccc(-c2ccc(S(=O)(=O)Oc3ccc(-c4c5ccccc5cc5sc(C)c(C)c45)cc3C3CCCC3)s2)n1 [Example 22, 5-(2-Methylsulfanyl-pyrimidin-4-yl)-thiophene-2-sulfonic acid 2-cyclopentyl-4-(2,3-dimethyl-naphtho[2,3-b]thiophen-4-yl)-phenyl ester], the inhibition at 1 µM is reported as 17%.

— patent US6121271A, “Naphtho[2,3-B]heteroar-4-yl derivatives” (American Home Products Corporation, priority 1999, dated 2000)
